Measurements taken from the supplement of paper PMC3334620.
In all, about 33,000 sequences were measured (“E-score (-0.5 to 0.5)”: median about -0.056, highest 2% from about 0.38 on). This is one part of the list.

Molecular target: Stb4 (UniProt P50104)
Assay: PBM E-score (8-mer binding enrichment) (E-score (-0.5 to 0.5)); higher = stronger / more preferred TF binding; most listed sequences are background and not binding sites
Conditions: protein concentration: 200 nM; construct: GST-DNA-binding domain
In short: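 PURExpress in vitro transcription/translation supplied GST-tagged yeast transcription factors, either full-length or DNA-binding domain. Applied at about 100-200 nM to universal all-10-mer Agilent arrays double-stranded by primer extension, the bound protein was detected with fluorescent anti-GST. E-scores, modified Wilcoxon-Mann-Whitney statistics, were given by the Universal PBM Analysis Suite to ungapped eight-base words pooled with their reverse complements after masliner normalisation.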

Sequence | PBM E-score
AAATTATC | 0.0765
GACGTAAC | -0.0191
AGATTGAC | -0.0764
GTGTAGGA | 0.08
GAAGGATA | 0.00639
ACAGGCGC | -0.205
AGCAGAAG | -0.115
AATGAGTG | 0.0515
ATGCGGTC | 0.0867
CTGATCGC | -0.228
CCATGCGA | -0.0784
CCCGCCCC | 0.357
ATCACTAA | 0.00784
AAGAATCC | 0.102
CCTGCTAG | -0.26
AAGGATGC | 0.0597
AGGCATTC | -0.155
ACATCTCG | 0.189
GACGCAAA | 0.0375
GCTGACTA | -0.206
ACTATGCA | -0.0883
TAGCTTAA | -0.236
GAAGCGCC | 0.153
TAATATAA | 0.0826

Sequence | PBM E-score
ACGCCCAC | -0.181
GGACTACC | 0.132
AAGATGTG | -0.156
TTAGACAA | -0.0136
GGCGTCTA | -0.0613
GGTTGTGA | 0.0633
AAGAAAAA | 0.0247
ATGACCTG | -0.139
GCGCTGAA | 0.0058
CCTCAATA | -0.13
CTACTGAG | -0.0265
TCCAAAGA | -0.153
ATTACTGA | -0.346
ACGCACCG | 0.0906
CGTTGCGA | -0.101
GAGTACCA | 0.0236
TATCGTGA | -0.162
AAACACCT | -0.0219
AGGTGTAC | -0.191
AGTTCCAT | -0.0691
AATCCAAT | 0.00508
GCCATAAA | -0.0329
GGTAAACC | 0.0527
GATGGATA | 0.0447

Sequence | PBM E-score
ACCTTACT | 0.0318
TAAGGCGA | -0.103
AACAGAGT | -0.126
GTACGTAA | -0.119
AATGCGAA | 0.0466
CCCAAGAA | 0.0234
GTTATAAC | 0.0904
ATAACTCG | 0.175
AGCGCGCA | 0.0388
AATCCCTC | -0.0127
CGAGCTTC | 0.246
CATTTGCA | -0.11
AAGTTGAA | -0.0617
CCATACTC | 0.027
ATGTCTCG | 0.139
AGAACCTA | -0.177
ACCATCTA | -0.0705
GCCTATGA | -0.191
AGTTCAAG | -0.0337
GTCACGCA | -0.139
ACCACCGG | 0.221
CACCACTC | 0.0997
ACTCACTC | -0.0472
CAGCAAGC | -0.175

Sequence | PBM E-score
AATTGAAC | -0.0663
GAGCCCCA | -0.0528
AGCGGCAA | 0.0896
ACTATAGA | -0.143
CCATACAG | -0.242
ACCCCTGG | -0.0589
AATCCGGT | 0.246
CAGGGGAC | -0.0799
CGATGGCG | 0.118
TATCTGCA | -0.273
ACCTCCCG | 0.259
AAATTCTT | -0.152
TACAAGGA | 0.0789
GGCTCCTA | -0.101
CTTCACCC | 0.127
CTGTAAGC | -0.0275
CAAGATCG | 0.0793
CTGTGGAA | 0.0525
GGTGCATA | 0.0207
CACTGGGC | -0.0958
GCTAATCC | 0.119
ATGTAATA | 0.0534
